# Whole data set: some 33,000 sequences, median “E-score (-0.5 to 0.5)” near -0.016, cut for the highest 2% near 0.32. The list shows a part of the results.
# Biological target: T1, Stp1 (UniProt B3LFK1)
# T1 sequence: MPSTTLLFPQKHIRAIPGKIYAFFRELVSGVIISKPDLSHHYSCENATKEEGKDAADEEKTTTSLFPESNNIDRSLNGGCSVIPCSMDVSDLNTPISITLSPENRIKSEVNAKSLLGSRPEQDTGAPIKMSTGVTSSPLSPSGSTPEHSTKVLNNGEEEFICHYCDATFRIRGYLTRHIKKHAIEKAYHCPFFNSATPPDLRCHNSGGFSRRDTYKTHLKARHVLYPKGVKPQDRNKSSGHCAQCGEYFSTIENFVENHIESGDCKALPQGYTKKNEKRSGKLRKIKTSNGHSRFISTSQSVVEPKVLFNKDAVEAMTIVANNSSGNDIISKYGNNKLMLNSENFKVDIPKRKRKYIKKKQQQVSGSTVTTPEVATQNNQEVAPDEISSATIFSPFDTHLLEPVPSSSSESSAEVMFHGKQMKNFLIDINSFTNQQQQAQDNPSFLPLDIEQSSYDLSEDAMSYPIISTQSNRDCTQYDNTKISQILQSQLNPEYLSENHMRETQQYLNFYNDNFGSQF
# Assay: PBM E-score (8-mer binding enrichment) (E-score (-0.5 to 0.5)); higher = stronger / more preferred TF binding; most listed sequences are background and not binding sites
# Conditions: protein concentration: 200 nM; construct: GST-full length
# Protocol: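 Universal 'all 10-mer' protein binding microarrays (Agilent AMADID 015681) probed with GST-tagged S. cerevisiae TFs (full-length or DBD) made by in vitro transcription/translation (PURExpress), about 100-200 nM. Bound TF was detected with fluorescent anti-GST. Each ungapped 8-mer (which stands for itself and its reverse complement) is scored by the PBM enrichment score (E-score), a modified Wilcoxon-Mann-Whitney statistic from -0.5 to +0.5, computed with the Universal PBM Analysis Suite. Scale: above 0.35 generally sequence-specific binding.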
row,Sequence,PBM E-score
1,CGTTATAA,0.0748
2,GTACGGAA,0.165
3,CAAAAAGG,-0.0151
4,AGTTGTTC,0.0553
5,ATATCCGC,0.158
6,CTAATGTC,-0.0773
7,AGACTGTG,-0.193
8,TACCCGTA,0.155
9,CTCCTACC,-0.231
10,CAGCCTGG,-0.267
11,ATATCGGA,-0.0326
12,ATAAGCTA,0.131
13,CGCCAGTC,0.0457
14,ACTTGCAG,-0.108
15,CTTAACCC,-0.277
16,ATTGCGTC,-0.107
17,CACCCAAC,-0.157
18,AACTTATG,0.0958
19,CGTAATTC,0.078
20,AAAGTCTT,0.0164
21,TTGAAAAA,0.189
22,AGAGAAGA,-0.171

row,Sequence,PBM E-score
1,CCCCCAGA,-0.37
2,ACTCTACT,0.00683
3,ACGACGAA,0.167
4,AGTATGTC,-0.0239
5,GCCCAAAC,0.0362
6,GAAATATC,0.124
7,CACGGTCA,-0.0806
8,AAGTCAGA,-0.083
9,AAGCTTGA,-0.141
10,AGCCGGCC,0.0296
11,ACCTACTC,-0.103
12,AGGTAACT,0.0354
13,CCTCAAGA,-0.124
14,CCCTTTCC,-0.11
15,ACCAACAA,0.163
16,AAAGAGAA,-0.00174
17,CCGTGATC,-0.0429
18,ACCTTGCA,-0.101
19,ACCAGCGG,-0.085
20,GTATGCCA,-0.0419
21,AACGCGGT,0.0233
22,CAATCTTA,0.00266

row,Sequence,PBM E-score
1,ACTTTCCC,-0.174
2,CTTGTTTA,0.117
3,TCAACGAA,0.0664
4,AGCGAAAA,0.035
5,ATGGCCAG,-0.0726
6,AGTTCAAT,-0.0607
7,CCAAGAAC,0.0116
8,ACCTAATG,-0.206
9,CCGCCTAC,-0.0313
10,GCACACAC,-0.0691
11,GTCCACAA,-0.112
12,AAGTAATA,-0.0246
13,TCCTGAGA,-0.0508
14,AGAGGATC,-0.161
15,CCCAAAAA,0.0647
16,TAATCGTA,0.0362
17,ATGTCGAG,0.143
18,GGTCGAGA,-0.26
19,ATTGCGTG,-0.0299
20,ACGATCCG,-0.0174
21,ACCACAAG,-0.0807
22,CGGTCCGC,0.0007

row,Sequence,PBM E-score
1,TTAGCTAA,0.13
2,ACTACAAA,0.103
3,ATCGGATG,-0.033
4,GCGTACAC,-0.102
5,AACTGACT,-0.018
6,GCAAGCTA,-0.0537
7,ATTAGATC,-0.0764
8,CACCTACA,-0.0664
9,ATCTTTAC,0.0911
10,CAATACTG,-0.149
11,GATTCTGA,-0.00106
12,AACGTAAG,0.00659
13,CTTGCAGC,-0.0407
14,AGTCCCTC,-0.343
15,GGAAGGAA,-0.0797
16,AGCTAGCC,-0.143
17,CCTCAACC,-0.0827
18,AAGTGGGA,0.118
19,CTCTCGGC,-0.101
20,GCCCGAAC,-0.0752

# Source: the supplement of paper PMC3334620
